Out of some 48,000 compounds screened, about 450 (0.94%) were called active. Another 19% or so got no clear call; they are omitted. Calls follow the shape of the dose curve; as a rule, active = well fitted inhibition curve with a large enough effect; inconclusive = small, poorly fitted or top-dose-only effect; inactive = no such curve, though single readings can be large or run the other way. The list shows a part of the results.
Potency is read from the fitted curve at half-maximal effect.

A short description of the experiment: Primary qHTS for Identification of Small Molecule Inhibitors of Huntingtin Promoter Activity. Also: nearly all actives have a fitted effect of over 50% in size. As to conditions: HEK293 HTT promoter firefly luciferase reporter (activity 0% = vehicle and -100% = no light), 24 h; series mostly up to 57.5 µM; activity change, negative = inhibition: at the top concentration. In short, it runs like this:
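HEK293 luciferase promoter-reporter cells (2,500/well) plated 24 h, then compounds added at up to 57.5 uM final for 24 h at 37 °C. Firefly luminescence by Dual-Glo, normalized to vehicle (0%) and zero RLU (-100%).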
(In general: qHTS replaces the single test concentration by a dilution series.)
On to `Cc1cccc(N2CCN(S(=O)(=O)c3c(C)nc4scc(C)n4c3=O)CC2)c1C`, for which the “activity change, negative = inhibition” value is inactive: -27%.

In the case of `COc1ccccc1NC(=O)c1ccc(COc2ccc(C)c(C)c2)o1`, the “activity change, negative = inhibition” value is inactive: -5.49%.

In the case of `CCCCn1c(=O)c2oc3ccccc3c2n(CC(=O)Nc2ccc(CC)cc2)c1=O`, the “activity change, negative = inhibition” value is inactive: -10.7%.

With `CCn1cc2nc(SCc3cc(C)ccc3C)n(CCc3ccccc3)c(=O)c2n1`, the “activity change, negative = inhibition” value is inactive: 0.924%.

Turning to `CCCCn1c(=N)n(CCCOc2ccc(F)cc2)c2ccccc21`, the “activity change, negative = inhibition” value is inactive: -30.2%.

Regarding `Cn1c(=O)c2c(nc(N3CCOCC3)n2Cc2ccccc2Cl)n(C)c1=O`, the “activity change, negative = inhibition” value was inactive: -15%.

Turning to `COCCCNC(=O)CCCn1c(=O)c2ccccc2n(CC(=O)Nc2ccc(C)cc2Cl)c1=O`, the “activity change, negative = inhibition” value is inactive: -3.21%.

As to `CC(C)Cn1c(-c2ccccc2Cl)nc2ccccc21`, the “activity change, negative = inhibition” value was inactive: 15.3%.

Turning to `O=C(NCCc1ccc(Cl)cc1)c1nnc(Cc2ccc(Cl)cc2Cl)o1`, the “activity change, negative = inhibition” value is inactive: -10.1%.

Consider `CCOc1ccc(-c2c(C)nn3c(C)c(C(=O)NCCN(C)C)cnc23)cc1OCC`, for which the “activity change, negative = inhibition” value is inactive: -9.14%.

As for `Cc1nc(S(=O)(=O)N2CCN(c3cccc(Cl)c3)CC2)cn1C`, the “activity change, negative = inhibition” value was inactive: -3.41%.

With `O=C(NCCc1ccc(Cl)cc1)c1ccc2nc(CCc3ccccc3)oc2c1`, the “activity change, negative = inhibition” value is inactive: 17%.

For the compound `COc1cc(OC)cc(-c2nnc(SCC(=O)c3ccc([N+](=O)[O-])cc3)o2)c1`, the “activity change, negative = inhibition” value is inactive: -11.5%.

With `O=C(CSc1nncn2c1cc1occc12)Nc1ccc(F)c(Cl)c1`, the “activity change, negative = inhibition” value was inactive: -4.47%.

With `COc1ccc(N(CC(=O)NCCc2ccc(C)cc2)S(=O)(=O)c2c(C)nn(C)c2C)cc1`, the “activity change, negative = inhibition” value was inactive: -14.8%.

For `COc1cc(Nc2nn(-c3ccc(OC(F)(F)F)cc3)nc2C(C)=O)cc(OC)c1`, the “activity change, negative = inhibition” value was inactive: -0.504%.

For `CCOC(=O)c1cc(-c2ccc(OC)cc2)n(CCC(=O)Nc2cccc(C)c2C)c1C`, the “activity change, negative = inhibition” value was inactive: -18.1%.

Turning to `CCCCc1nn2c(=O)cc(COC(=O)c3ccc4c(c3)OCO4)nc2s1`, the “activity change, negative = inhibition” value is inactive: -12.6%.

Turning to `COc1cc(OC)cc(-n2c(=O)c3ccccc3n(Cc3ccccc3C#N)c2=O)c1`, the “activity change, negative = inhibition” value was inactive: -15.6%.

For the compound `CCC(=O)Nc1cc(-c2cn3cccnc3n2)ccc1OC`, the “activity change, negative = inhibition” value was inactive: 8.91%.

With `CC1=C(C(=O)Nc2ccccc2)C(C(C)C)n2nc(SCc3ccccc3C)nc2N1` (stereo not given), the “activity change, negative = inhibition” value was inactive: 7.09%.

Take `OCC(O)C(O)C(O)CO` (stereo not given): the “activity change, negative = inhibition” value was inactive: -7.93%.

As for `CCc1ccc(NC(=O)Cn2nc(C(F)(F)F)c3c2CCCC3)cc1`, the “activity change, negative = inhibition” value is inactive: -21.2%.

With `O=C(Cn1ncn2cccc2c1=O)NCc1cccc(Br)c1`, the “activity change, negative = inhibition” value is inactive: 60.4%.

On to `Cc1c(Cl)cccc1NC(=O)Cn1c(=O)cc(C)c2c(C)nn(-c3cccc(F)c3)c21`, for which the “activity change, negative = inhibition” value is inactive: 7.69%.

In the case of `COc1ccc(NC(=O)c2cc(-c3ccc(F)cc3)no2)cc1OC`, the “activity change, negative = inhibition” value is inactive: -9.37%.

As for `COc1ccccc1Cc1nc2ccccc2nc1SCC(=O)Nc1c(C)cccc1C`, the “activity change, negative = inhibition” value was inactive: -13.2%.

With `O=C(OCC(O)CO)c1ccccc1Nc1ccnc2c(C(F)(F)F)cccc12` (stereo not given), the “activity change, negative = inhibition” value was inactive: -15.4%.

Turning to `Cc1cc(NC(=O)c2ccco2)cc(-c2nc3ccccc3o2)c1O`, the “activity change, negative = inhibition” value is inactive: -5.55%.

On to `CCCNC(=O)Cn1nc(-c2ccc(C)cc2)c2cnc3ccc(CC)cc3c21`, for which the “activity change, negative = inhibition” value is inactive: -0.324%.

For the compound `CCN(C(=O)CCS(=O)(=O)c1cc2c(cc1C)NC(=O)CO2)c1cccc(C)c1`, the “activity change, negative = inhibition” value was inactive: -5.63%.

In the case of `CCn1c(C)c(C)c2cc(C(=O)N3CCN(c4ccccc4)CC3)ccc21`, the “activity change, negative = inhibition” value is inactive: -3.07%.

Take `CN(C)CCN(Cc1ccccc1)S(=O)(=O)c1csc(C(N)=O)c1`: the “activity change, negative = inhibition” value is inactive: -8.83%.

For the compound `Cc1ccc(CNS(=O)(=O)c2c(C)nc3sc(C)cn3c2=O)cc1`, the “activity change, negative = inhibition” value was inactive: -13%.

Turning to `Cc1ccc(Cl)cc1NC(=O)CN1C(=O)c2ccccc2Sc2ncccc21`, the “activity change, negative = inhibition” value is inactive: -16.2%.

On to `COc1ccc(CCNC(=O)c2ccc3c(c2)nc2n3CCCCC2)cc1OC`, for which the “activity change, negative = inhibition” value was inactive: -26.6%.

Regarding `CCCn1cnc2cc(NC(=O)c3cc(OC)c(OC)c(OC)c3)ccc21`, the “activity change, negative = inhibition” value is inactive: 6.68%.

On to `Cc1cccc(N2CCN(Cc3nnc(-c4cccc(Br)c4)o3)CC2)c1C`, for which the “activity change, negative = inhibition” value is inactive: -19.7%.

As for `CCCOC(=O)c1cccc(NC(=O)CSc2nnc3cc(C)c4ccccc4n23)c1`, the “activity change, negative = inhibition” value is inactive: -13.3%.

Take `CC(=O)c1ccc(NC(=O)c2nc(-c3ccccc3)n(-c3ccc(C)cc3)n2)cc1`: the “activity change, negative = inhibition” value was inactive: -4.01%.

Turning to `Clc1ccc2nc(-c3ccc(N4CCOCC4)cc3)c(Nc3ccccc3)n2c1`, the “activity change, negative = inhibition” value is inactive: 11.7%.

Take `O=C(NCc1cccc(Cl)c1)C1CCCN(c2nn3cc(-c4ccc(F)cc4)nc3s2)C1` (stereo not given): the Potency is active: 2510 nM.

Regarding `CCc1ccccc1N(C)C(=O)c1nn(-c2ccc(OC)cc2)c(=O)c2c1c1ccccc1n2C`, the “activity change, negative = inhibition” value is inactive: -6.35%.

On to `CCOc1ccc(CNc2cc(C)nc3nc(-c4cccc(C)c4)nn23)cc1OC`, for which the “activity change, negative = inhibition” value is inactive: 10.4%.

For the compound `Cc1cccc(NC(=O)c2ccc3oc(=O)c(S(=O)(=O)c4ccc(F)cc4)cc3c2)c1C`, the “activity change, negative = inhibition” value was inactive: -7.17%.

With `CCOc1ccc(S(=O)(=O)c2cc3cccc(OCC)c3oc2=O)cc1`, the “activity change, negative = inhibition” value is inactive: 2.6%.

`CC1CCc2c(sc3nnn(Cc4ccccc4Cl)c(=O)c23)C1` (stereo not given): the “activity change, negative = inhibition” value was inactive: -16.7%.

For `CCOc1ccccc1Oc1ncnc2c1oc1ccccc12`, the “activity change, negative = inhibition” value is inactive: -25.8%.

On to `CC1CCC(NC(=O)c2ccc3c(c2)N(Cc2ccccc2F)C(=O)c2ccccc2S3(=O)=O)CC1` (stereo not given), for which the “activity change, negative = inhibition” value was inactive: 18.5%.

With `CCOc1ccccc1CNCc1c(C(=O)O)n(Cc2ccccc2)c2cc(OC)ccc12`, the “activity change, negative = inhibition” value was inactive: -13%.

The values above are taken from PubChem BioAssay AID1508623 (National Center for Advancing Translational Sciences (NCATS), 2021).
